# About 2,200 (0.71%) of roughly 310,000 compounds showed an effect of 50% or more. The effect is printed as a negative number. Some of the results follow.
# Target: human ether-à-go-go-related gene (hERG) potassium channel (human, UniProt Q12809)
# Assay: primary screen, population patch clamp on CHO cells stably expressing hERG
# Sequence of human ether-à-go-go-related gene (hERG) potassium channel (Q12809 whole entry, looked up): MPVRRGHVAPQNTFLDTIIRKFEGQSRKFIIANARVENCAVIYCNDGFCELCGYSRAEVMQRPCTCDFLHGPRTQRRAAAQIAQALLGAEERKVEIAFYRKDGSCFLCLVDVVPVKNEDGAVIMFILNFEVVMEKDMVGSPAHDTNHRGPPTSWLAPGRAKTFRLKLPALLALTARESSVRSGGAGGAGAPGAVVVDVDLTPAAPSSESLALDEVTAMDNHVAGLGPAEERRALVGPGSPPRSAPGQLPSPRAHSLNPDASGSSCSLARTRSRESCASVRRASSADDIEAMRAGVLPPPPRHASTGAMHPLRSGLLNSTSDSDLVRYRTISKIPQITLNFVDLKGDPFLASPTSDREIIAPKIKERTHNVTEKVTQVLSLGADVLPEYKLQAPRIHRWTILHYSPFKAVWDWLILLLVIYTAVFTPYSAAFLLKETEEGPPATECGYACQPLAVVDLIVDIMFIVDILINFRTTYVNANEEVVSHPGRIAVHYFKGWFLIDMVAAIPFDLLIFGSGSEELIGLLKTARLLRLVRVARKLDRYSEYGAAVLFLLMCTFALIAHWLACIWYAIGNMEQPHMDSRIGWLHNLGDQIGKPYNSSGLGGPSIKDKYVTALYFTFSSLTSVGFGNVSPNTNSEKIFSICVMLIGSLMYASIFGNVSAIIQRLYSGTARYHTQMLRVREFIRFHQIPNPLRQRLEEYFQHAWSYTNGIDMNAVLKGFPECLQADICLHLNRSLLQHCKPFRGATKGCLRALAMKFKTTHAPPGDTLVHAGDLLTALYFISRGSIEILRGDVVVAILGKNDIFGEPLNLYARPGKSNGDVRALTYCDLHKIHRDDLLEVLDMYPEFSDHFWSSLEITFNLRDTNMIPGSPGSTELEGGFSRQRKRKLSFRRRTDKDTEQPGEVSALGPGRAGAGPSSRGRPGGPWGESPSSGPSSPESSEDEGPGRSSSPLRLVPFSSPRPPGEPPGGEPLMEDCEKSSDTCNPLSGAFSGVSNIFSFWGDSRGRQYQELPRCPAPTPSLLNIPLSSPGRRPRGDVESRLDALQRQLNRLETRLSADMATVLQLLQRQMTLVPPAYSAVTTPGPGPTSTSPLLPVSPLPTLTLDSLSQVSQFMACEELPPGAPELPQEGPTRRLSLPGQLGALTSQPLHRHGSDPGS
row,SMILES,"hERG current change (%, negative = inhibition) at 1uM [%]"
1,CC1=NN(c2nc(-c3ccc(C)cc3)cs2)C(=O)C1N=Nc1ccccc1O (stereo not shown),9.36
2,Cn1cnc2c(oc3ccccc32)c1=O,13.6
3,CCCNC(=S)N1CCCC(c2nc3ccccc3[nH]2)C1 (stereo not shown),13.6
4,Fc1cccc(CCN2CCN=C2Nc2ccccc2)c1,-5.72
5,CCOc1ccc(NC(=O)NCc2ccco2)cc1,15.4
6,C=CCc1cc(OC)ccc1OCCOCCC(C(=O)OCC)C(=O)OCC,5.46
7,Cc1ccc(N(C(=O)CNC(=O)c2ccco2)C(C(=O)NC2CCCC2)c2ccncc2)cc1F (stereo not shown),-0.584
8,CCN(CC)c1nc(C)nc2c1cnn2CCc1ccccc1.Cl,10.2
9,COC(=O)c1sc(N2C(=O)c3oc4ccccc4c(=O)c3C2c2cccc(O)c2)nc1C (stereo not shown),5.01
10,COc1ccccc1CNC(=O)C1CC(c2ccccc2F)=NO1 (stereo not shown),1.18
11,O=C(NC(=S)Nc1ccc2c(c1)OCCO2)c1cccc2ccccc12,4.58
12,O=C(Nc1ccc(N2CCN(C(=O)c3ccc(Cl)cc3)CC2)cc1)c1ccc2c(c1)OCCO2,0.171
13,COc1cc(C(=O)N2CCN(c3cccc(C)c3C)CC2)cc(OC)c1OC,2.77
14,O=C(O)C1CCCN1S(=O)(=O)c1cc(Cl)ccc1Cl (stereo not shown),7.21
15,CCN(CC(=O)NCc1cccs1)C(=O)c1cccc(S(=O)(=O)Nc2ccc(C)cc2)c1,8.65
16,COc1ccc(S(=O)(=O)Nc2cccc(S(=O)(=O)NC3=NCCC3)c2)cc1[N+](=O)[O-],13.2
17,CC(=O)Nc1cc2c3c(c1)CCN3C(=O)CC2,22.9
18,CCOc1ccc(CC(=O)NNC(=S)NCCc2ccccc2)cc1,9.01
19,O=C(CCNS(=O)(=O)c1cccc2nsnc12)N1CCN(c2ccccn2)CC1,1.62
20,CCOC(=O)C1(CCOc2ccccc2)CCN(Cc2ccc3c(c2)OCCO3)CC1,-25.8
21,O=c1[nH]c(/C=C\c2cccs2)nc(O)c1[N+](=O)[O-],7.29
22,CCOc1cccc2cc(C(=O)NCc3ccc(Cl)cc3)c(=N)oc12,9.46
23,COc1ccc(N=Cc2nc(-c3ccco3)oc2O)cc1,7.06

row,SMILES,"hERG current change (%, negative = inhibition) at 1uM [%]"
1,Cc1ccc(Cl)cc1NS(=O)(=O)N1CCOCC1,4.61
2,ClC1=C(Cl)C2(Cl)C3C(Cl)C=CC3C1(Cl)C2(Cl)Cl (stereo not shown),9.29
3,Cc1ccc(-c2nn(CC(=O)NCCN3CCOCC3)c(=O)c3ccccc23)cc1,-3.87
4,COc1ccc2c(c1)C(c1ccc(C)o1)=NNC(c1cccnc1)=N2,9.67
5,Cc1ccc(-n2nnnc2SCC(=O)Nc2nc(-c3ccc(F)cc3)cs2)cc1C,11.5
6,Cc1cc(C)cc(NC(=O)CN2CCC(NC(=O)c3ccccc3F)CC2)c1,-1.51
7,NNC(=O)c1ccc(Cn2cccn2)o1,6.5
8,COc1cccc(C(=O)Nc2ccc3c(c2)C(=O)N(CC2CCCO2)C3=O)c1 (stereo not shown),0.596
9,Cc1ccccc1NC(=O)CN1C(=O)NC(C)(c2ccc3c(c2)OCO3)C1=O (stereo not shown),10.1
10,COc1ccccc1C(=O)Nc1ccnn1C1CCN(CC2CC=CCC2)CC1 (stereo not shown),-69.1
11,O=C(Nc1cccnc1)C1CCC(CNS(=O)(=O)c2cccc3nsnc23)CC1 (stereo not shown),5.13
12,CCOc1c2ccccc2nn1CCO,14.5
13,Cc1nc(NC(=O)CN(C)S(=O)(=O)c2ccc(Br)cc2)sc1C,-1.16
14,Br.CCn1c2c(c(=N)c3ccccc31)CCC2,12
15,O/N=C1\CCC\C1=C/c1ccco1,11.4
16,Fc1ccc2nc3n(c2c1F)CCCCCC3,13.4
17,CCC(=O)NCC(c1ccco1)N1CCN(c2ccc(OC)cc2)CC1 (stereo not shown),13.4
18,O=C(Nc1nccs1)C(c1ccccc1)N1CCCC1 (stereo not shown),2.47
19,O=C(CN1C(=O)C2CC=CCC2C1=O)NCC1COc2ccccc2O1 (stereo not shown),8.49
20,COc1ccc(CS(=O)(=O)CC(C)(O)c2ccccc2Cl)cc1 (stereo not shown),12.9
21,CCn1c(SCC(=O)Nc2nccs2)nnc1C1CC1,21.3
22,COCCCn1c(C)nnc1-c1cnn(-c2ccccc2)c1N,18.3
23,Cc1nn(CC(=O)Nc2ccccn2)c(C)c1[N+](=O)[O-],14.1

row,SMILES,"hERG current change (%, negative = inhibition) at 1uM [%]"
1,CC1CCCC(C)N1/N=C/c1ccc([N+](=O)[O-])cc1 (stereo not shown),5.14
2,CC1(/[N+]([O-])=C/c2ccccc2F)CCCCC1=O (stereo not shown),4.48
3,CCOc1ccccc1NC(=O)COC(=O)/C=C/c1ccc(OC)c(OC)c1,8.3
4,Cc1cc(C(=O)NNC(=O)COc2c(C)cc(Br)cc2C)n[nH]1,-16.1
5,O=C(NCCc1cccs1)c1ccc(Cl)c(Cl)c1,-0.66
6,C/C(=N\NC(=O)c1ccccc1[N+](=O)[O-])c1ccc(Br)s1,14.7
7,CSc1ccc(NC(=O)Nc2cc(C)ccn2)cc1,15.3
8,CC(C)(C)CN1C(=O)C(=O)NC[C@H]1Cc1ccc(O)cc1,8.12
9,Cc1ccc(NC2=NCCCCC2)cc1C.Cl,18.1
10,Cc1cc(N(CN2CCCC2=O)C(=O)c2ccc(OC(C)C)cc2)no1,-0.184
11,CC(=O)NCC(=O)Nc1ccc(Br)cc1C(=O)c1ccccc1,7.11
12,Cc1cc(-c2c(C)[nH]n(-c3ccc(Cl)cc3)c2=O)n(-c2ccccc2)n1,8.13
13,O=C(NNC1=Nc2ccccc2SC1)c1ccccc1F,16.5
14,CCOC(=O)c1nnn(CC(=O)N2N=C(c3ccc(Cl)cc3)CC2c2ccc(OC)cc2)c1C(=O)OCC (stereo not shown),0.0097
15,Cc1cc(C)cc(N(CC(=O)O)S(=O)(=O)c2c(C)[nH]c(=O)[nH]c2=O)c1,9.7
16,COc1ccc(S(=O)(=O)Nc2ccc(C)cc2)cc1N(C)S(=O)(=O)c1ccc(Cl)cc1,8.03
17,CC(C)N(C(=O)Cn1cc(SCC(N)=O)c2ccccc21)C(C)C,7.97
18,Cc1ccccc1C(=O)NNC(=S)NC(=O)COc1ccccc1,16.5
19,CCOc1ccc(CCNc2nc3ccccc3n3cnnc23)cc1OCC,15
20,Cc1cc2ncn(C(=O)c3c(-c4ccccc4)noc3C)c2cc1C,0.0878
21,CC(C)(C)OC(=O)N1CCC(c2c(C(=O)NCC3CCN(C4CCCC4)C3)cnn2-c2cccc(Cl)c2)CC1 (stereo not shown),5.86
22,CC(Sc1nc(N)c(NC(=O)c2ccc(Br)o2)c(=O)[nH]1)C(=O)O (stereo not shown),-4.87
23,O=C(CSc1nc2nc(-c3cccs3)cc(C(F)(F)F)c2c(=O)[nH]1)NCc1ccco1,4.84

row,SMILES,"hERG current change (%, negative = inhibition) at 1uM [%]"
1,CCOC(=O)CN(C(=O)Cn1nnc(-c2ccc(C)cc2)n1)C(CC)C(=O)NC1CCCC1 (stereo not shown),3.44
2,O=C(Nc1ccc(F)cc1)Nc1nnc(-c2ccncc2)s1,13
3,CCC(CO)N=CC1=C(O)CC(c2ccccc2)CC1=O (stereo not shown),15.6
4,O=C(CCN1C(=O)/C(=C\c2ccccc2)SC1=S)NCCCN1CCOCC1,-2.63
5,COc1ccc2c(c1)C1NC(=S)NC(C)(O2)C1C(=O)Nc1ccccc1C (stereo not shown),4.75
6,Cc1ccccc1N1C(=O)C(Oc2ccc(Cl)cc2)C1CNCCCOC(C)C (stereo not shown),-3.82
7,Cc1cc(=O)[nH]c2c1c(C)nn2C1CCCCC1,3.19
8,Cc1cc(C(=O)CSc2nnnn2-c2ccc(O)cc2)c(C)n1C,15.4
9,O=C(COc1coc(CN2CCc3ccccc32)cc1=O)NCCc1ccccc1,12.1
10,Cc1c(N2C(=O)C3C4C=CC(C4)C3C2=O)c(=O)n(-c2ccccc2)n1C (stereo not shown),14
11,CCc1nnc(NC(=O)c2ccc(COc3ccccc3C)o2)s1,15.8
12,Cl.Nc1nonc1C(=O)NCCNCc1c(OCc2ccccc2F)ccc2ccccc12,-1.93
13,Cc1cccc(C)c1OCCNC(=O)c1ccc2ccccc2n1,12.2
14,COc1ccc(-c2ccnc(SCC(=O)c3ccc(Br)cc3)n2)cc1,-2.08
15,CCOC(=O)C1CCN(C(=O)CSc2ccc(Br)cc2)CC1,-1.57
16,Cc1ccc(C)c(S(=O)(=O)Nc2ccc(C(=O)N3CCC3)cc2)c1,6
17,Cc1cc(OCC(=O)NCCN2CCOCC2)c2c(C)c(C)c(=O)oc2c1,6.74
18,CC1Cc2ccccc2N1C(=O)CO/N=C/c1ccc(OC(F)F)cc1 (stereo not shown),-4.16
19,CCCn1nnnc1SCC(=O)Nc1cccc(NC(=O)c2ccco2)c1,-0.863
20,Cc1cc(C(=O)NNc2c(Cl)cccc2Cl)n(C(C)(C)C)n1,14.4
21,CCOC(=O)c1cn(CC(=O)Nc2ccc(C)cc2)nn1,5
22,Cc1ccc(S(=O)(=O)Nc2nc3ccccc3nc2N2CCN(c3ccccc3F)CC2)cc1,3.63

# — publication PMC4336329 (PLoS ONE, 2015)
